{"source": "PubChem BioAssay AID504832", "about": "(National Center for Advancing Translational Sciences (NCATS), 2011)", "note": "About 18,000 (5.8%) of roughly 310,000 compounds were called active. The inconclusive results got no clear call from the source; some entries with a clear call stand among them for comparison. The call rests on the fitted dose curve; in most records, active means well fitted inhibition curve with a large enough effect; inconclusive means small, poorly fitted or top-dose-only effect, or another doubt; inactive means no such curve, though single readings can be large or run the other way. No potency is given beside an inconclusive call; the fits are too rough. Potency means the concentration at half of the fitted maximal effect; tags describe the fitted curve by direction and shape."}
{"assay": "Primary qHTS for delayed death inhibitors of the malarial parasite plastid, 48 hour incubation", "settings": "P. falciparum luciferase growth in erythrocytes; series mostly up to 28.7 µM", "procedure,_shortened": "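Parasite viability was followed by luminescence of a genomically integrated firefly luciferase. Cultures held 0.1% parasitemia at 2% hematocrit (final), incubated under 5% CO2 at 37 C.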"}
{"smiles": "CC(C)c1ccc(NC(=O)C2CCCCN2S(=O)(=O)c2ccccc2)cc1", "note": "(centres undefined)", "Potency": "inconclusive [inhibitor, single point]"}
{"smiles": "CCc1ccc(NC(=S)/N=C(\\N)Nc2nc(C)c3cc(CC)ccc3n2)cc1", "Potency": "inconclusive [inhibitor, partial curve]"}
{"smiles": "CCC(C)(C)n1nnnc1C(c1ccc(C)cc1)N1CCC(C)CC1", "note": "(centres undefined)", "Potency": "active: 10.4 µM"}
{"smiles": "CCOC(=O)CCNC(=O)N1CCCC(N2CCN(c3ccc(OC)cc3)CC2)C1", "note": "(centres undefined)", "Potency": "inactive"}
{"smiles": "COc1ccccc1-n1c(O)c(C=NCCN2CCNCC2)c(=O)[nH]c1=O", "Potency": "inconclusive [inhibitor, full curve]"}
{"smiles": "COc1cccc2cc(-c3cc(=O)oc4ccc(O)cc34)oc12", "Potency": "inconclusive [inhibitor, single point]"}
{"smiles": "Cc1ccc(NS(=O)(=O)c2ccc(C(=O)N3CCCC(C(F)(F)F)C3)cc2)cc1", "note": "(centres undefined)", "Potency": "inconclusive [inhibitor, single point]"}
{"smiles": "CCCCC1=CC2=C(c3ccco3)C(=O)C(C)(OC(=O)c3ccc(OC)cc3)C(=O)C2=CN1Cc1ccc2c(c1)OCO2", "note": "(centres undefined)", "Potency": "inconclusive [inhibitor, single point]"}
{"smiles": "CC1(C)C(=O)Nc2ccccc2N1C(=O)COC(=O)c1ccc(Cl)c(S(=O)(=O)NCc2ccccc2)c1", "Potency": "inconclusive [inhibitor, single point]"}
{"smiles": "Cc1ccc(-c2nnc(SCc3ccc(C#N)cc3)n2Cc2ccco2)cc1", "Potency": "inconclusive [inhibitor, partial curve, poor fit]"}
{"smiles": "S=C(NCc1cccnc1)Nc1cccc(Cl)c1", "Potency": "inconclusive [inhibitor, partial curve, poor fit]"}
{"smiles": "CC(=O)Nc1ccc(C(=O)OCc2ccc(F)cc2)cc1", "Potency": "inconclusive [inhibitor, single point]"}
{"smiles": "CC1CCCC(NC(=O)CCNC(=O)c2ccc(Br)cc2)C1C", "note": "(centres undefined)", "Potency": "inconclusive [inhibitor, single point]"}
{"smiles": "CCCc1c(CC)c(=N)c2ccccc2n1C", "Potency": "active: 0.329 µM"}
{"smiles": "CC(=O)c1cccc(NC(=O)c2ccc3c(c2)CCN3S(=O)(=O)c2ccccc2)c1", "Potency": "inconclusive [inhibitor, single point]"}
{"smiles": "Cc1ccccc1C(=O)NNC(=S)NC(=O)c1ccccc1", "Potency": "inconclusive [inhibitor, single point]"}
{"smiles": "COCCNC(=O)Cn1cc(/C=C(\\C#N)C(=O)NC2CCCC2)c2ccccc21", "Potency": "inactive"}
{"smiles": "CCN(C(=O)CN(C)Cc1cccc(Cl)c1Cl)c1c(N)n(Cc2ccccc2)c(=O)[nH]c1=O", "Potency": "inactive"}
{"smiles": "O=C(O)CCn1c(=S)n(CCC(=O)O)c2ccccc21", "Potency": "inactive"}
{"smiles": "COc1cc(C(=O)OCC(=O)NC(=O)C2CCCCC2)ccc1OC(F)F", "Potency": "inconclusive [inhibitor, single point]"}
{"smiles": "CCc1cc(=O)oc2c(C)c(OCC(=O)N3C[C@H]4C[C@@H](C3)c3cccc(=O)n3C4)ccc12", "Potency": "inconclusive [inhibitor, partial curve, poor fit]"}
{"smiles": "COc1ccc(CN2CCN(C(=O)c3ccco3)CC2)cc1OC", "Potency": "inconclusive [inhibitor, full curve, poor fit]"}
{"smiles": "O=C(NNc1ccccc1)C(CCO)C(=O)NNc1ccccc1", "Potency": "inconclusive [inhibitor, partial curve, poor fit]"}
{"smiles": "COc1nc(NC2CCCCC2)nc(N2CCCCCC2)n1", "Potency": "inconclusive [inhibitor, single point]"}
{"smiles": "CCOC(=O)c1cc2c(ccn2C)n1CC(=O)N1CCC(Cc2ccccc2)CC1", "Potency": "active: 10.4 µM"}
{"smiles": "COc1ccc(CC(=O)Nc2ccc(C(N)=O)cc2)cc1", "Potency": "inactive"}
{"smiles": "CCCc1cc(NCCCO)n2c(nc3ccccc32)c1C#N", "Potency": "inconclusive [inhibitor, partial curve, poor fit]"}
{"smiles": "O=C(Nc1ccccc1N1CCCC1)c1ccc([N+](=O)[O-])cc1Cl", "Potency": "inconclusive [inhibitor, single point]"}
{"smiles": "O=C(NCc1cccnc1)c1ccc(COc2ccc3c(c2)CCC3)o1", "Potency": "inconclusive [inhibitor, single point]"}
{"smiles": "Cc1ccc2cc(CCNC(=O)c3c(-c4ccccc4Cl)noc3C)c(=O)[nH]c2c1", "Potency": "inconclusive [inhibitor, single point]"}
{"smiles": "O=C(Nc1cc2c3c(c1)CC(=O)N3CCC2)c1ccco1", "Potency": "inactive"}
{"smiles": "Nc1nc(N2C(=O)C3CC=CCC3C2=O)nn1-c1ccccc1", "note": "(centres undefined)", "Potency": "inconclusive [inhibitor, partial curve, poor fit]"}
{"smiles": "Cc1ccc(C)c(OCCC(=O)NNC(=O)c2cc(C)oc2C)c1", "Potency": "inconclusive [inhibitor, single point]"}
{"smiles": "CC(NC(=O)c1ccc(C(C)(C)C)cc1)C(c1cccs1)N1CCOCC1", "note": "(centres undefined)", "Potency": "active: 13.1 µM"}
{"smiles": "CCSc1nc2sc3c(c2c(=O)n1-c1ccccc1)CCN(C(C)C)C3", "Potency": "active: 1.47 µM"}
{"smiles": "C/C(=N\\NC(=O)c1cccc(S(=O)(=O)N2CCOCC2)c1)c1ccc(C)cc1", "Potency": "inconclusive [inhibitor, single point]"}
{"smiles": "COc1ccccc1CN(Cc1cc2c(C)ccc(C)c2[nH]c1=O)Cc1nnnn1Cc1ccco1", "Potency": "active: 4.65 µM"}
{"smiles": "O=C(Cc1ccccc1)Nc1ccc2c(c1)CCC2", "Potency": "inactive"}
{"smiles": "O/N=C/c1ccc2cccc(O)c2n1", "Potency": "inactive"}
{"smiles": "CN1CCCN(S(=O)(=O)c2ccc3ccccc3c2)CC1", "Potency": "inactive"}
{"smiles": "O=C(c1ccc(Cn2c(=S)[nH]c3ccc(Br)cc3c2=O)cc1)N1CCN(C2CCCCC2)CC1", "Potency": "inconclusive [inhibitor, single point]"}
{"smiles": "C=CCOC(=O)/C=C/C(=O)NC(N)=O", "Potency": "inconclusive [inhibitor, partial curve, poor fit]"}
{"smiles": "COc1ccc(CN(C)CC(=O)NC(=O)Nc2ccccc2F)cc1", "Potency": "inactive"}
{"smiles": "COc1ccc(S(=O)(=O)N2CCCCC2)cc1NC(=O)CCCNC(=O)c1ccc(Cl)cc1", "Potency": "inconclusive [inhibitor, single point]"}
{"smiles": "CCn1ncc(C2=NOC(C(=O)Nc3cccnc3)C2)c1C", "note": "(centres undefined)", "Potency": "inactive"}
{"smiles": "CSc1cccc(CN2CCCC(CNC(=O)c3ccco3)C2)c1", "note": "(centres undefined)", "Potency": "inconclusive [inhibitor, single point]"}
{"smiles": "O=c1c2ccccc2nc(/C=C/c2ccccc2)n1CCc1ccccc1", "Potency": "inconclusive [inhibitor, single point]"}
{"smiles": "COc1ccc(NC(=O)C2CCN(S(=O)(=O)c3ccc4c(c3)NC(=O)C(C)S4)CC2)cc1", "note": "(centres undefined)", "Potency": "active: 9.28 µM"}
{"smiles": "c1ccc(-c2nc3c4ccccc4ccn3c2CN2CCCCC2)cc1", "Potency": "inconclusive [inhibitor, single point]"}
{"smiles": "CCCCn1c(N)c(N(CCOC)C(=O)COC(=O)C(C)(C)Oc2ccc(Cl)cc2)c(=O)[nH]c1=O", "Potency": "inconclusive [inhibitor, single point]"}
{"smiles": "Cc1cc(=O)c(C(=O)O)nn1-c1ccccc1F", "Potency": "inactive"}
{"smiles": "CCCn1c(N)c(C(c2ccc(C(=O)OC)cc2)N2CCN(c3ccccc3)CC2)c(=O)[nH]c1=O", "note": "(centres undefined)", "Potency": "inconclusive [inhibitor, single point]"}
{"smiles": "CN1CCN(CC(=O)Nc2ccccc2Sc2ccccc2)CC1", "Potency": "inconclusive [inhibitor, single point]"}
{"smiles": "CN=C(NC(=O)Nc1c(C)cccc1C)NC(=O)Nc1c(C)cccc1C", "Potency": "inconclusive [inhibitor, single point]"}
{"smiles": "COc1ccc(Cl)cc1CN1CCN(c2nc(C)cc(C)c2C#N)CC1", "Potency": "inconclusive [inhibitor, single point]"}
{"smiles": "CN(C)C(=S)c1ccc2ccccc2n1", "Potency": "inconclusive [inhibitor, single point]"}
{"smiles": "COc1cc(N/C=C(\\C(C)=O)c2ccccc2)cc(OC)c1", "Potency": "inconclusive [inhibitor, partial curve, poor fit]"}
{"smiles": "CCCCC(=O)NC(c1ccc([N+](=O)[O-])cc1)c1c(O)ccc2ccccc12", "note": "(centres undefined)", "Potency": "active: 10.4 µM"}
{"smiles": "Cc1ccc(S(=O)(=O)N2CCC(C(=O)Nc3cc(C(F)(F)F)ccc3N3CCOCC3)CC2)cc1C", "Potency": "inconclusive [inhibitor, partial curve]"}
{"smiles": "Cc1ccc(NC(=O)CCc2nnc3ccc(N4CCOCC4)nn23)cc1C", "Potency": "inconclusive [inhibitor, partial curve, poor fit]"}
{"smiles": "CCCCN(C1CCS(=O)(=O)C1)S(=O)(=O)c1cccs1", "note": "(centres undefined)", "Potency": "inconclusive [inhibitor, single point]"}
{"smiles": "Cc1cnccc1CN(C)Cc1nc(Cc2ccccc2Cl)no1", "Potency": "active: 9.28 µM"}
{"smiles": "CCOC(=O)C1(CCOc2ccccc2)CCN(Cc2cccn2-c2ncccn2)CC1", "Potency": "inconclusive [inhibitor, single point]"}
{"smiles": "O=C(CCCN1C(=O)/C(=C/c2ccccc2)SC1=S)Nc1ccc(O)cc1", "Potency": "inconclusive [inhibitor, partial curve]"}
{"smiles": "CCC(=O)Nc1ccccc1Sc1ncnc2scc(-c3ccccc3)c12", "Potency": "active: 13.1 µM"}
{"smiles": "CC1=NN(C(=O)c2ccccc2)C(O)(c2ccc(Br)cc2)C1", "note": "(centres undefined)", "Potency": "inconclusive [inhibitor, single point]"}
{"smiles": "CCn1cc(C(=O)Nc2ccc(C)c([N+](=O)[O-])c2)cn1", "Potency": "inactive"}
{"smiles": "O=C(C1=C[C@H](C2CCCCC2)C[C@H](OCCCCO)O1)N1CCN(Cc2ccc3c(c2)OCO3)CC1", "Potency": "active: 11.7 µM"}
{"smiles": "Cc1cccc(NC(=O)C(c2ccccc2Cl)N2CCOCC2)c1", "note": "(centres undefined)", "Potency": "active: 11.7 µM"}
